# Reference: the supplement of paper PMC10126150
# Sequences with one replicate were seen in a single cluster, so their values are uncertain.
# Tested on: ATP
# Experiment: switch fluorescence ratio, 500 uM ATP over buffer (Cy3 cluster intensity, sum of 5 cycles each) (fold (ratio)); higher = stronger signal-on switching upon ATP binding; sequences stand for … in TCGTCGGCAGCGTCAGATGTGTATAAGAGACAGTTTTTTTTTTTTTTTTTTTTTTTTT…TC
# Details: aptamer strand: ATP DNA aptamer (quencher-CACCTGGGGGAGTATTGCGGAGGAAGG + anchor), 100 nM annealed; ATP concentration: 500 uM; one replicate
# Outline: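 Five buffer/ATP imaging cycles were run on Cy3-labelled switching-strand clusters on a modified Illumina MiSeq flow-cell, with NaOH stripping and re-annealing between cycles. In each cycle, clusters annealed to 100 nM quencher-labelled ATP aptamer were imaged in selection buffer, then after 15 min with 500 uM ATP at 22 °C. Per cluster, the fluorescence ratio is summed target-cycle over summed buffer-cycle Cy3 intensity, averaged per switch-domain sequence. Only clusters within 100-1000 RFU were kept.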
# 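Also: ATP exposure 15 min at 22 °C before imaging.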
row,Sequence,switch fluorescence ratio
1,GCTCAGTCAT,1.07
2,GGTACGAGAA,0.96
3,GTTGTTAGC,1.01
4,GCTAATCTCA,1.06
5,TTAATCAGAC,1.05
6,GAAACTGCGC,1
7,TTACGTGACG,0.995
8,GCAGTTAAA,0.987
9,TAATAATAAA,0.981
10,AGTATTATAC,1.01
11,TTTTTACGTA,1.17
12,ATAAAAGATC,0.993
13,CATTATTTTC,1.02
14,ACTTGGGTGC,1.1
15,CCCACGACGT,1.05
16,AAAAACATGT,0.99
17,CCAAAGGTAC,1.83
18,TTCATAAGGG,0.943
19,AGTAAAAGTG,1.1
20,GGCGAGGTCG,0.985
21,ATCGCAGTTA,1.03
22,GTGTGAGCGA,0.974
23,TTCTATACT,1.02
24,AGCACAGACC,1.22
25,AGCTGACGCC,1.3

row,Sequence,switch fluorescence ratio
1,AGCTCTGTCT,1.03
2,GGGAATACGC,1.1
3,TATTTATATG,1.01
4,GGCCTTCAAT,1.01
5,AAACTGATCT,1.03
6,CTAGGGTGTA,1.05
7,AGGGTACTCT,1.03
8,CGAAGCGTAA,2.54
9,CCCTCAGGTC,2.34
10,CTGGGTTCGC,0.996
11,TAAGTGTAGT,1.04
12,GACTGCGGAC,2.05
13,CATGAGCACT,1.13
14,CTGTTCCCGG,1.09
15,TAGATATTT,0.921
16,TTGTGTTATA,0.997
17,AGCAAGATGG,1.12
18,GAGGTAACGA,0.947
19,GCCATTCCA,0.988
20,AGTTGATCA,1.06
21,CGGAAGGGA,1.03
22,GGCATCGCAA,1.61
23,TGGTGAGCAC,1.07
24,TTCCGCGGGA,1.1
25,TTAAGGTAGA,1.14

row,Sequence,switch fluorescence ratio
1,TGATTGCAGG,1.01
2,GTGTAATCTG,0.968
3,TAGTTGTTGG,0.972
4,GCGCAGGCTG,1.03
5,GCGCAAAATG,0.999
6,GGAGGCAATC,2.17
7,GATTTTGGTA,0.967
8,GGCGCCAATA,1.36
9,TTTACTCACT,1.18
10,GACACCTATT,1.08
11,CGTCCTTTGA,1.04
12,GATTATCCCC,1.03
13,CAGATCGCTC,1.34
14,TGTTCAAT,1.03
15,CGTGCGTCTT,1.01
16,CCGGTAGGTT,1.03
17,AATGTCACGG,1.05
18,GATGCTTAAT,0.954
19,GTGGTCAGCC,0.989
20,TGCCGGGCGC,1
21,TTAATGAAGC,0.993
22,TGTTAGGTTG,0.949
23,TGTAGCAAAG,1.99
24,ATTTGAAGGG,0.999
25,AAGTATACTG,1.05

row,Sequence,switch fluorescence ratio
1,CGGTAGCC,0.983
2,AAATACTTAC,1.34
3,GGCATGTTGT,0.972
4,CCGGCCTTTT,0.946
5,GGCTGAAGGT,0.986
6,GCAAGAGCGA,1.02
7,GACTACATGT,1.01
8,ACACGCGAGG,1.02
9,ATGAGGTAAG,0.998
10,TAACGTCCAC,1.24
11,GGATCTGATA,0.987
12,GCTTCACGGG,1.01
13,CCCGTGCTGA,1.04
14,AGATAAGAGG,1
15,CGGGTGATGA,1.03
16,CACGGGGTAG,0.993
17,CTGGAAAGCC,0.983
18,GTCACTCTTT,1.03
19,CCGAGACGGA,1
20,GGCTTCACTA,0.978
21,TCCATTCGGA,1.08
22,GCTTCCATTA,1.03
23,TGGCATGTCC,1
24,ACTCCGGCTG,2.6
25,AACGGAAGTC,1.01

row,Sequence,switch fluorescence ratio
1,GCTATGTATA,0.987
2,GCCTCAAAGC,1.01
3,ACAAAAGGTT,1.04
4,CATGATCACA,1.02
5,CCTTTCGACG,1.03
6,CTTAGAGATG,0.993
7,CTTAGACTTT,0.996
8,TTCGGGATCA,0.956
9,ATGCGGCGTG,0.931
10,CTAAAAGCAA,1.74
11,GCTATAGGCT,1.03
12,ATCCCTATAA,1.1
13,AGGGCTGGAC,1.01
14,AAATGACAAA,1.02
15,GCTTAAGGGA,0.982
16,GCTTTGTGTT,1.05
17,ATTAAAGCTC,0.967
18,CGAAACTTAG,0.997
19,ATACATGAG,1.02
20,CTTGTTCTTG,0.985
21,TTTACGATGA,1.02
22,TCTTCTGGGT,0.954
23,GCATGGAATG,0.977
24,TGCAAAGGCA,0.982
25,TTCTTCTTGT,0.988

row,Sequence,switch fluorescence ratio
1,CGGACAAAGG,0.996
2,TGCGCCCAAA,0.97
3,CATTCTGGTA,0.956
4,TTATACTGTA,1.41
5,TAGAGAACAA,1.05
6,CGAACACAG,1.08
7,GGATCGGGGT,0.998
8,TCCCCCGTAT,1.61
9,TTTTAAACCC,1.01
10,CACCTTCAGC,1.29
11,TCTTCTTCTT,0.969
12,AATCGTATCA,0.964
13,GGAACCGAAT,1
14,GTGCCAGGCA,0.997
15,GTCGGGCTGG,0.98
16,ACGTATAGGG,1.13
17,GGAAATGCTA,1.03
18,TTTGTATTAT,1.81
19,TTCCGAATTT,1.07
20,TAGATTACAT,1.01
21,TGTCTCGAGC,1.04
22,CACGATTGGA,0.974
23,ATGCTACGTC,0.996
24,ACGCGTGGGA,1.08
25,TAAATTGGAT,1.01

row,Sequence,switch fluorescence ratio
1,CCCATATGAC,1.06
2,GTTGAATCGC,0.998
3,GATCGATTTA,1.02
4,CGACACCGCT,1.25
5,TGCACAAGTC,1.04
6,ATTCAGCGC,1.01
7,AGCCTAGAAC,1
8,AATGTGACGT,1.01
9,AGGTTCTACA,0.991
10,ATTTAGTGGC,1.01
11,CCAGCCAATG,1.23
12,GATCGCCGGG,0.943
13,AAGTGCCGAT,1.01
14,TCAAATAGAA,1.01
15,ACCAAGCTTA,1.04
16,TGCCGTAATA,1.57
17,CTGTGACCTC,1.06
18,CGCAAAGAGT,1.21
19,CAACACTAAC,1.17
20,TCGTTTCCAT,1.03
21,TAATAATCGT,0.977
22,TAATGGATTA,1
23,CCCCCTTCTA,0.98
24,CGGGAAGGAT,1.02
25,CCATTACCAC,1.06

row,Sequence,switch fluorescence ratio
1,TTTGCATTGA,1.02
2,TATGAGCGAG,1.07
3,CTATGGGCTG,0.901
4,CAAGAAGCTA,1.03
5,CCCGTTCCCG,1.06
6,ACAACAACAA,1.01
7,ATCGCTCAAG,1
8,ATTTGAGTAA,0.969
9,TTCTTGCAGT,0.998
10,ACGAGGCAGT,5.92
11,CGAACGTCCG,0.984
12,AGAGTAATGA,1.03
13,TGCCCCAAAA,1.02
14,CGTGTATTTT,1.02
15,TGATAACAGT,1.03
16,TCGATGGATT,0.969
17,ATGCCCTGCC,1.06
18,GACCCTTGTT,1.04
19,GAAAACGGAC,1.26
20,TGATCTTATA,0.968
21,ATATGTGCTT,0.961
22,CTGGCTTGCA,1.04
23,TTTGCCTCAG,1.16
24,GAATCCAGAG,1.02
25,TGAAGAAGAG,1.04
